Experimental data reported in PubChem BioAssay AID1347120 (National Center for Advancing Translational Sciences (NCATS), 2019).
Out of some 390,000 compounds screened, about 930 (0.24%) were called active. The inconclusive results got no clear call from the source; some entries with a clear call stand among them for comparison. The call rests on the fitted dose curve; in most records, active means well fitted activation curve with a large enough effect; inconclusive means small, poorly fitted or top-dose-only effect; inactive means no such curve, though single readings can be large or run the other way. Potencies of inconclusive entries are doubtful fits and often do not repeat.

Experiment: qHTS for Suppressors of FUS Proteinopathy: Primary screen using FUS-linked yeast assay; further: nearly all actives have a fitted effect of over 55% in size;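 on growth rescue (activation): plate controls were DMSO vehicle for no effect and reference control for full effect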
Conditions: S. cerevisiae FUS-expressing, OD600, 24 h; Potency: growth rescue; growth rescue (activation): at 76.6 µM (top of the series)
Outline: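 Compound concentration series was pinned onto galactose-induced FUS-expressing yeast seeded at OD 0.005. Plates sat 24hr at 30C; absorbance at 600 nm gave growth. DMSO served as background control.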
Potency means the concentration at half of the fitted maximal effect; tags describe the fitted curve by direction and shape.

Row | SMILES | Potency | growth rescue (activation)
1 | CCOC(=O)[C@]12CCC=C1N(Cc1cccc3ccccc13)C(=O)[C@H](CC(=O)N1CCOCC1)C2 | inconclusive: 31.6 µM [activator, single point] | 
2 | N#Cc1ccsc1NC(=O)COC(=O)C1=NNC(=O)CC1 | inconclusive: 28.2 µM [activator, single point] | 
3 | CCc1nc2ccc(C(=O)Nc3ccc(Cl)c(Cl)c3)cn2c1N(C)Cc1ccc(OC)cc1 | inconclusive: 35.5 µM [activator, single point] | 
4 | COc1ccc(S(=O)(=O)c2c(SC)nn(CC(=O)Nc3ccc(C)c(Cl)c3)c2N)cc1 | inconclusive: 25.1 µM [activator, single point] | 
5 | CCn1cc(C(=O)N2CCc3ccccc32)c(=O)c2cc(S(=O)(=O)N3CCCCCC3)ccc21 | inconclusive: 31.6 µM [activator, partial curve, poor fit] | 
6 | COC(=O)c1[nH]c2cc(C)ccc2c1NC(=O)CN1CCN(c2ccccc2OC)CC1 | inactive | 
7 | C=CCN(C(=O)c1oc2c(Cl)cc(C)cc2c1C)C1CCS(=O)(=O)C1 (stereo unspecified) | inconclusive: 25.1 µM [activator, partial curve, poor fit] | 
8 | O=C(/C=C/[C@H]1O[C@@H](n2cnc3c(NC(=O)c4ccccc4)ncnc32)[C@H](O)[C@@H]1O)NCC(c1ccccc1)c1ccccc1 | inconclusive: 20 µM [activator, single point] | 
9 | COc1ccc(CNC(=O)C[C@H]2C[C@H](C(=O)N(C(C)C)C(C)C)[C@@]3(C)c4[nH]c5cc(-c6ccco6)ccc5c4CCN3C2=O)cc1OC | inconclusive: 28.2 µM [activator, single point] | 
10 | COc1ccc(COC[C@H](CC(C)C)N2CCN(C(=O)c3cccc(C(F)(F)F)c3)CCC2=O)cc1 | inconclusive: 39.8 µM [activator, single point] | 
11 | Cc1cc(C)n(-c2ccc(C(=O)Nc3ccc(S(=O)(=O)NCc4ccco4)cc3)cc2)n1 | inconclusive: 5.62 µM [activator, full curve, poor fit] | 
12 | O=C(CN(C(=O)Cn1nnc(-c2ccc(F)cc2)n1)C1CCCC1)NC1CCCC1 | inconclusive: 11.2 µM [activator, partial curve, poor fit] | 
13 | Cc1noc(C)c1S(=O)(=O)Nc1ccc2c(c1)CC(=O)N([C@H](C)CO)C[C@H](C)[C@H](CN(C)S(=O)(=O)c1ccc(F)cc1)O2 | inconclusive: 7.94 µM [activator, partial curve] | 
14 | CN1/C(=C/C2CC(=O)N(c3cccc4ccccc34)C2=O)C(C)(C)c2ccccc21 (stereo unspecified) | inconclusive: 35.5 µM [activator, partial curve, poor fit] | 
15 | CC1CC2(C)CC(C)C1(COC(=O)Nc1ccccc1)CO2 (stereo unspecified) | inactive | 
16 | CCCNC(=O)C1(C)CCN(C(=O)c2cccc(C(F)(F)F)c2)C1 (stereo unspecified) | inactive | 
17 | Cc1ccc2c(c1)[C@H]1[C@H](CO2)[C@H](c2ccccc2)[C@]2(C)C(=O)Nc3ccc(Br)cc3C(=O)N12 | inconclusive: 22.4 µM [activator, partial curve] | 
18 | Cc1ccc(CN(C(=O)c2sc3ccccc3c2Cl)C2CCS(=O)(=O)C2)cc1 (stereo unspecified) | inconclusive: 50.1 µM [activator, single point] | 

Row | SMILES | Potency | growth rescue (activation)
19 | Cc1c(C(=O)N2CCCc3ccccc32)oc2ccc(S(=O)(=O)N3CCOCC3)cc12 | inconclusive: 50.1 µM [activator, single point] | 
20 | CCOC(=O)c1[nH]c(C)c(CCC(=O)Nc2ccccc2OCC)c1C | inactive | 
21 | CCCN(C(=O)Cc1nc(-c2ccc(OC)cc2)no1)c1ccccc1C | inconclusive: 31.6 µM [activator, partial curve, poor fit] | 
22 | C=C(C)COc1ccc(-c2nc(N)ncc2-c2ccc(Cl)cc2)c(O)c1 | inconclusive: 31.6 µM [activator, single point] | 
23 | O=C(NCc1cccc(Cl)c1)c1cccc2c(-c3cccnc3)coc12 | inconclusive: 35.5 µM [activator, single point] | 
24 | CCN1C(=O)[C@H]2[C@@H](c3ccc(-c4ccc(OC)cc4)cc3)N[C@@](CC(C)C)(C(=O)OC)[C@H]2C1=O | inconclusive: 39.8 µM [activator, partial curve, poor fit] | 
25 | COC(=O)c1ccc(C23CC4(C2)[C@H](CN(Cc2ccc(-c5ccccc5)cc2)[C@@H]4c2ccccc2)C3c2ccccc2)cc1 (stereo partly specified) | inconclusive: 35.5 µM [activator, single point] | 
26 | COCCn1c(=O)[nH]c2cc(C(=O)NCc3ccccc3)ccc2c1=O | inactive | 
27 | CCc1ccccc1NC(=O)C1CCC(=O)N(c2ccc(OC)cc2)C1c1ccc(OC)cc1 (stereo unspecified) | inactive | 
28 | O=C(C[C@H]1C/C=C/CC[C@@H](Cc2ccc(F)cc2)C(=O)O[C@@H](c2ccccc2)CNC1=O)NCCO | inconclusive: 35.5 µM [activator, single point] | 
29 | Cc1ccc(C(=O)N2CCN3C(=O)c4ccccc4C23c2ccccc2)cc1 (stereo unspecified) | inactive | 
30 | COc1ccc(C(=O)c2c(-c3ccc(OC)cc3)oc3ccc(-c4ccc(OC)nc4)cc23)cc1 | inconclusive: 31.6 µM [activator, single point] | 
31 | CCOC(=O)[C@H]1[C@H]2COc3ccc(OC)cc3[C@@H]2N2C(=O)CN(CCc3c[nH]c4ccccc34)C(=O)[C@@]12C | inconclusive: 22.4 µM [activator, partial curve] | 
32 | COc1cccc(N2C(=O)C(CC(=O)Nc3ccccc3)N(CCc3sccc3C)C2=O)c1 (stereo unspecified) | inconclusive: 44.7 µM [activator, single point] | 
33 | CCc1ccccc1NC(=O)CN1C(=O)C2CCCN2c2ccc(S(=O)(=O)N(CC)CC)cc21 (stereo unspecified) | inconclusive: 50.1 µM [activator, single point] | 
34 | CN(C(=O)C1Cc2c(-c3ccccc3Oc3ccccc3)ccnc2O1)c1ccccc1 (stereo unspecified) | inconclusive: 28.2 µM [activator, single point] | 
35 | Cc1onc(-c2ccccc2)c1C(=O)Nc1ncc([N+](=O)[O-])s1 | inactive | 
36 | COc1cccc(/C=N/Nc2snc(SC)c2C#N)c1 |  | inconclusive: 68.3% [activator]
